# From the antibiotic and cytotoxicity screens of Wong et al. (2023)
# Some of the results follow.
# System: HepG2
# Test: cytotoxicity call (relative viability < 0.9)
# Settings: 10 µM
row,SMILES,cytotoxicity call
1,Cc1cccnc1[C@@H](NC(=O)C1CCN(CCOc2ccc(Cl)cc2Cl)CC1)c1ccc(F)cc1,inactive
2,COc1c2ccoc2cc2oc(C)cc(=O)c12,inactive
3,COc1ccc(CNC(=O)N(C)C[C@H]2OCc3ccccc3-c3c(n(C)c4ccccc34)C(=O)N([C@H](C)CO)C[C@@H]2C)cc1,inactive
4,Cc1noc(C)c1S(=O)(=O)Nc1ccc2c(c1)C(=O)N([C@@H](C)CO)C[C@@H](C)[C@@H](CN(C)Cc1ccc(Cl)c(Cl)c1)OCCCC[C@@H](C)O2,inactive
5,CCCNC(=O)Nc1ccc2c(c1)C(=O)N(C)C[C@H](OC)[C@H](C)CN(Cc1ccc(-c3ccccn3)cc1)[C@@H](C)CO2,inactive
6,C[C@@H]1CCCCO[C@H](CN(C)C(=O)NC2CCCCC2)[C@H](C)CN([C@@H](C)CO)C(=O)c2cc(NC(=O)Nc3ccc(C(F)(F)F)cc3)ccc2O1,inactive
7,C[C@@H]1CN([C@@H](C)CO)C(=O)c2cccc(NS(=O)(=O)c3ccc(F)cc3)c2O[C@@H]1CN(C)S(=O)(=O)c1ccccc1,inactive
8,C[C@@H]1CCCCO[C@H](CN(C)Cc2ccc(C(F)(F)F)cc2)[C@@H](C)CN([C@H](C)CO)C(=O)c2cc(NS(=O)(=O)c3ccc(F)cc3)ccc2O1,inactive
9,O=C(C[C@@H]1CC[C@H]2[C@@H](COC[C@H](O)CN2S(=O)(=O)c2ccccc2)O1)NCCN1CCCC1,inactive
10,Cc1c(C)c(C)c(CN)c(C)c1C,inactive
11,C[C@H](CO)N1C[C@H](C)[C@@H](CN(C)CC2CCCCC2)OCCCC[C@H](C)Oc2ccc(NC(=O)Nc3ccc(F)cc3)cc2C1=O,active
12,Cc1noc(C)c1S(=O)(=O)Nc1ccc2c(c1)CC(=O)N([C@H](C)CO)C[C@H](C)[C@H](CN(C)Cc1ccccc1)O2,inactive
13,C[C@@H]1CN([C@H](C)CO)C(=O)Cc2cc(NC(=O)Nc3ccc(C(F)(F)F)cc3)ccc2O[C@@H]1CN(C)Cc1ccc(Oc2ccccc2)cc1,active
14,COc1cccc(S(=O)(=O)N[C@H]2CC[C@H](CCn3cc(-c4ccccc4OC)nn3)O[C@@H]2CO)c1,inactive
15,C[C@@H]1CN([C@@H](C)CO)C(=O)c2cc(-c3ccc(F)cc3)cnc2O[C@@H]1CN(C)C(=O)Cc1ccccn1,inactive
16,C[C@@H]1CN([C@H](C)CO)C(=O)c2cc(NC(=O)Cc3ccccc3)ccc2O[C@@H]1CN(C)S(C)(=O)=O,inactive
17,C[C@H](CO)N1C[C@H](C)[C@H](CN(C)C(=O)NC2CCCC2)Oc2cc(-c3cncnc3)ccc2S1(=O)=O,inactive
18,Cc1scc2c1N(C(=O)CN1CCN(C)CC1)c1ccccc1NC2=O.Cl,inactive
19,C/C=C/c1cnc2c(c1)C(=O)N([C@H](C)CO)C[C@H](C)[C@@H](CN(C)S(=O)(=O)c1ccc(OC)cc1)O2,inactive
20,O=C1N[C@@H](Cc2c[nH]c3ccccc23)COC(=O)[C@@H](Cc2ccc(F)cc2)CC=CC[C@@H]1CC(=O)N(CCO)Cc1ccccc1,active

row,SMILES,cytotoxicity call
1,COCC#Cc1ccc([C@H]2[C@H](CO)N3C(=O)CN(C(=O)c4cccnc4)C[C@@H]23)cc1,inactive
2,COc1ccc(S(=O)(=O)N(C)C[C@H]2Oc3ccc(N(C)C)cc3C(=O)N([C@H](C)CO)C[C@H]2C)cc1,inactive
3,C[C@H]1CCCCO[C@@H](CN(C)CC2CCCCC2)[C@@H](C)CN([C@@H](C)CO)C(=O)c2cc(NC(=O)NC3CCCCC3)ccc2O1,inactive
4,C[C@H](CO)N1C[C@H](C)[C@H](CN(C)Cc2ccc(-c3ccccc3)cc2)Oc2ccc(NC(=O)CCC(F)(F)F)cc2CC1=O,inactive
5,C[C@@H]1CN([C@@H](C)CO)C(=O)c2cc(NS(=O)(=O)c3ccc(F)cc3)ccc2O[C@@H](C)CCCCO[C@@H]1CN(C)C(=O)CCC(F)(F)F,inactive
6,CN1C(=O)c2cc(NC(=O)c3cscn3)ccc2OC[C@@H]2O[C@@H](CC(=O)N3CCOCC3)CC[C@H]21,inactive
7,O=C(C[C@H]1CC[C@@H](NC(=O)CN2CCOCC2)[C@H](CO)O1)NCCc1ccccc1,inactive
8,CC(C)NC(=O)Nc1ccc2c(c1)C(=O)N([C@@H](C)CO)C[C@H](C)[C@@H](CN(C)CC1CCCCC1)OCCCC[C@@H](C)O2,inactive
9,CC(C)NC(=O)Nc1ccc2c(c1)C(=O)N(C)[C@H]1CC[C@H](CC(=O)NCc3ccc(F)cc3)O[C@@H]1CO2,inactive
10,Cc1ncc([N+](=O)[O-])n1C[C@@H](C)O,inactive
11,CCCN(C)C[C@@H]1OCCCC[C@@H](C)Oc2ccc(NS(C)(=O)=O)cc2C(=O)N([C@@H](C)CO)C[C@@H]1C,inactive
12,O=C(NCC(F)(F)F)[C@H]1[C@H](CO)[C@H]2Cn3c(cccc3=O)[C@@H]1N2C(=O)C1CCC1,inactive
13,C[C@H](CO)N1C[C@H](C)[C@H](CN(C)Cc2ccc(-c3ccccc3)cc2)Oc2ccc(NC(=O)NC3CCCCC3)cc2CC1=O,inactive
14,C[C@@H]1CN([C@H](C)CO)C(=O)c2cc(NC(=O)CCCN(C)C)ccc2O[C@@H]1CN(C)C(=O)Nc1ccc2c(c1)OCO2,inactive
15,C[C@@H]1CN([C@H](C)CO)C(=O)c2cccc(NS(=O)(=O)c3cccs3)c2O[C@H]1CN(C)CC1CC1,inactive
16,CS(=O)(=O)c1ncc(Cl)c(C(=O)NCCc2ccc(S(N)(=O)=O)cc2)n1,inactive
17,C[C@H]1CN([C@@H](C)CO)C(=O)c2cc(NC(=O)C3CC3)ccc2O[C@@H]1CN(C)S(=O)(=O)c1ccc(F)cc1,inactive
18,CCCCS(=N)(=O)CC[C@@H](N)C(=O)O (stereo not given in full),inactive
19,C[C@H](CO)N1C[C@H](C)[C@H](CN(C)S(=O)(=O)c2ccc(Cl)cc2)Oc2ccc(NS(C)(=O)=O)cc2CC1=O,inactive
20,O=C(NCc1ccc2c(c1)OCO2)[C@H]1[C@H](CO)[C@H]2Cn3c(cccc3=O)[C@@H]1N2Cc1cncnc1,inactive
